Over roughly 33,000 sequences, “E-score (-0.5 to 0.5)” has its median near -0.016; the highest 2% begin near 0.32. Some of the results follow.
Molecular target: T1, Stp1 (UniProt B3LFK1)
T1 sequence: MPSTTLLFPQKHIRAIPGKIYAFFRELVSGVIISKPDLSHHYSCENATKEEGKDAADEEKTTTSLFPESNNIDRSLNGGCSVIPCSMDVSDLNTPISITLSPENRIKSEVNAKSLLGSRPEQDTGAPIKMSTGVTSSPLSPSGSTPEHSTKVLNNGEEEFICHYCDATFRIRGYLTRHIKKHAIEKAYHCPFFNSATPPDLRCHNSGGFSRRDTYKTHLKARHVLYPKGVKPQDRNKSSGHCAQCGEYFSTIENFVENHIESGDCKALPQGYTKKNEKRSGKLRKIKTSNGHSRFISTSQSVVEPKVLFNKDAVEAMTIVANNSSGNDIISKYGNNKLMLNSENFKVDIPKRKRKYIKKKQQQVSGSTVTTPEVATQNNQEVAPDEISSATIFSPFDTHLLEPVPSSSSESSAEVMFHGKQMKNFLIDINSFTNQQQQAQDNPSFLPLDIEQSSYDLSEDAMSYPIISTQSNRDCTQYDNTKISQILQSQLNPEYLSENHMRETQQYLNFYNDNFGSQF
Test: PBM E-score (8-mer binding enrichment) (E-score (-0.5 to 0.5)); higher = stronger / more preferred TF binding; most listed sequences are background and not binding sites
Details: protein concentration: 200 nM; construct: GST-full length
Method in brief: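 Full-length yeast transcription factors or their DNA-binding domains, GST-tagged and expressed with PURExpress, were applied at about 100-200 nM to universal all-10-mer Agilent arrays. These arrays had been made double-stranded by primer extension on fresh or once-stripped slides. Detection used fluorescent anti-GST, normalisation used masliner, and E-scores for ungapped eight-base words pooled with reverse complements came from the Universal PBM Analysis Suite.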

Sequence	PBM E-score
CTGTGATA	-0.0831
AAGGATCT	-0.101
CCGGAACG	0.0376
AGCAGGAA	-0.0917
ATAGACTG	-0.0266
CGAAACTC	-0.188
TGTATTAA	0.118
ACGACCAG	-0.0555
AATACATG	-0.0569
CGATATTC	-0.0542
AGGCTGGG	-0.261
ACCTCTAA	-0.102
CTATCAGA	-0.171
AAACCCCA	-0.188
ACGCGCGC	0.289
AGCATTAA	-0.0764
CTGTGGTC	-0.134
ATCCGCAG	0.152
CGCTATAG	-0.178
GCACGTAA	-0.0547
ACATAATG	0.0685
ATAATTAC	0.13
ACGATAAT	-0.00117
GTCTTCCA	-0.237
GTCTTCAC	-0.00987

Sequence	PBM E-score
CTATCAAG	-0.0607
GGGGCCTA	-0.433
ACAACTAC	-0.0492
GTAGTAAA	0.0794
ACAGGAGG	-0.146
GCGACGGA	0.116
ATAGAGCC	0.304
AATGGAGG	-0.246
AGATATAC	-0.0856
CTGCGAAC	-0.114
GTTAGGTA	0.0914
ATATCGTA	0.0908
AAGGACAG	-0.0695
CCATGCCG	0.336
ATATTAGA	0.158
GTGTTAAA	0.102
AAAGACTC	-0.179
CCAAGGTA	-0.15
GGCAGGTA	-0.0782
ATGTCCGG	-0.00537
AGAAACGC	0.0995
AAGGATAA	0.00348
ACCGGCTA	-0.0689
GCTTGACC	-0.173
GGAAGCGA	-0.042

Sequence	PBM E-score
AAAGGAGA	-0.323
CCACGTCA	-0.0175
GATCGTGA	-0.0394
AGATATGA	0.0634
CAGATACG	0.176
AAACGCCT	0.141
AAAAAGTT	-0.039
GGACATCA	-0.00603
TGAATTCA	0.225
AGATGTTA	0.0502
GAAATGTA	0.108
CGTCTGCA	0.145
CGAGTGAA	0.137
CGCTCAGC	0.134
TGACCGCA	0.025
CAGAATAC	-0.0754
AAATCTCA	0.0633
GTCTGAGA	0.054
CATCTCAA	-0.024
GACTTCCA	-0.354
CTCGAAGA	-0.197
ATCTAGAC	-0.038
CCAATCCG	0.0938
AGGGTCAC	-0.249
GAGGGTTA	-0.217

Sequence	PBM E-score
TAAATGTA	0.119
GGAGAGGA	-0.226
AGCAAATC	0.0661
AATGTAAC	0.0488
CCCCGCAC	-0.00823
CCATGGGC	0.0271
CATTCTCG	0.128
ACGTCATC	-0.252
GCCGACCC	-0.019
ACTGTTGC	0.00756
GAGTCAAA	-0.103
AGCTAAGA	-0.0288
TAGTCAGA	-0.106
CGCCCATA	0.06
GCCGTGTA	0.473
GGTGTGAC	-0.27
CAACACTC	0.113
CACATAAA	0.219
ATTGATAC	0.236
AATTGCAG	0.0119
CGTATGTA	0.0821
TACTCACA	-0.0151
ACGGCACG	0.484
GAGGGTCC	-0.374
AACTCATG	0.0773

Sequence	PBM E-score
AGTCCGTG	0.0264
CCTTGACC	-0.182
GGCGAGAA	0.18
CTGAACTA	-0.12
CGAGCGAA	0.126
CGTCGTAG	-0.00851
GTCGAGAC	-0.083
TTGCCCAA	-0.0123
CAGAGCCC	-0.0943
CCGTGGGA	0.047
AAAGCCGA	-0.0141
CCTACCTA	-0.0899
TAGTTAAA	0.133
GGCGGTCA	-0.0538
CATGATCC	-0.132
GCGCCGAA	0.389
ACCCAGCC	-0.393
GACGATCC	-0.168
ACGCGGCG	0.488
ACCTTTCA	-0.165
AAGTGCCC	0.079
CTATGGGA	-0.237
GAACACGC	0.0617
CTGCTGAC	0.0578
CTAATCTA	0.078

Sequence	PBM E-score
GAACTACC	-0.295
AGAACAGC	0.0931
ATCATAGC	0.0208
AAACCATG	0.0395
TGACGTCA	0.166
GTCCTAGA	-0.249
AAATCGGG	-0.125
ATATCTAA	0.0738
CTCGGAGA	0.0864
TCTTAAGA	-0.0714
CTGATTGC	-0.0235
GATACAGC	-0.0344
GTCAGATA	-0.172
ACGCTCAC	-0.00321
AAGAGCCT	0.134
ATGCTAAG	-0.0379
AACGTGTG	0.041
GCCCAACC	-0.0708
CAGACACG	-0.01
ATATTGTC	0.15
CTCCAATC	-0.0716
AGTTGCAA	-0.0284
AAGACTCA	-0.161
AAACTTGA	0.0733
AGTAGCAT	0.00131

Sequence	PBM E-score
ACGCACTC	-0.0094
GATTGGCC	-0.0765
AAACAGTT	0.0554
CACACAAC	0.113
ACTGCCGA	0.163
GCTACAGC	0.0254
ACTTTTCT	-0.107
ATGCTGCA	-0.165
GCCCCCCA	-0.366
AGAGACCA	-0.186
AACGACTA	0.0864
CTTAGGTA	-0.127
TCCGGCAA	-0.00549
CGAGGTAA	0.0437
ACTGAATA	0.151
AACCCGCT	-0.133
GGTAGATA	-0.0205
CGGTTATC	-0.0601
ATAAACAG	-0.0421
TGTAAGAA	0.186
CAATCACG	0.174
AATAATGG	0.0405
TAACTAGA	0.169
ACATACGC	0.0727
GGCGTAAC	0.00498

Sequence	PBM E-score
AAATACTT	0.0537
ATGATACA	0.129
CCGTGCTA	0.157
ACTCAGCC	-0.17
AATTTCTG	0.154
GAGCATAA	0.173
AAATTTAA	0.177
GTTCTGCA	-0.0148
ATACGTAG	-0.00523
CCCAGTCG	-0.267
AAACGTAC	-0.0101
ATGCTACG	0.00328
GTATTCAC	0.113
TCTCGTAA	0.19
TGCTCCAA	0.12
ACATGAAC	0.0617
ATCACAGG	-0.202
CTTCTGAC	-0.1
CAAGCGCA	-0.0229
CCATAGGC	-0.103
ACGAGCTG	-0.0141
CAGGCTGA	-0.157
CGCCTCTC	0.0325
GAATGCTC	-0.128
TAAAGACA	-0.0443

Sequence	PBM E-score
CCACCAAC	-0.0671
TCGCTACA	-0.25
ATGAATGC	0.137
ACCGGCGT	0.0951
ATGACAAT	0.183
CTCATAAC	0.0397
ATAGGTAA	-0.0396
ACGCCTTC	0.204
AGACCTCT	-0.252
CATGACCG	-0.196
CTTGAGAC	-0.142
CACGAATG	0.133
ACTGCACT	-0.0486
CGCAAAAC	0.178
AGGGTGAT	-0.195
CGAATCGC	0.0206
GCACCCGC	-0.0179
CTCACCGC	-0.161
AGACAGCT	-0.102
AGTTAATA	0.155
ACACAAGG	0.136
ATAGGTCG	-0.0394
GGGAAGAA	-0.0458
TCCTTCCA	-0.276
CATTATTC	0.154

Sequence	PBM E-score
ATCCTGCG	-0.0188
ATCCCCGG	-0.283
CTCTTAAG	0.0162
AGTCGCCA	-0.199
CTTTGAGC	-0.0965
CGAAGACC	-0.115
ATGCCCAT	-0.0356
ACTGCACA	-0.0746
CATCGTCG	-0.0468
GTTTTCCA	0.0851
ATGCTCCC	-0.339
TAGAGTCA	-0.261
CAAGGAAA	-0.0626
ATCGGACG	-0.18
GGTGAAGA	0.0112
ACTAGCGG	0.0202
GTGACGGA	-0.111
CAGCCGGG	-0.135
ATACAGCA	0.0146
TACTTGGA	0.119
AAAAGACT	-0.0853
AATGTCAT	-0.00238
GACGAGAC	-0.315
CGCTCTAA	0.11
CGCGACTA	0.0871

Sequence	PBM E-score
TATGTTAA	0.0905
GGCCCTGA	-0.146
CGCCAATC	0.00033
ACCGTCAG	-0.279
CAAACTCA	0.0872
TAGGGCCA	-0.0444
AAAAGTTG	0.171
TAGGCTGA	-0.0652
CATATATG	0.0581
CGCAGGAC	-0.121
CGAGGGGC	-0.111
ACCTTTCC	-0.194
ATTAGTTC	0.0233
CCCACTCG	-0.172
CACCAGGA	0.0475
AAGGTTGA	-0.127
CCGAACAA	0.117
CGTTCACA	0.0691
CTCAGCAG	-0.137
CTCTGCCC	-0.164
AAGGACTA	-0.222
GCCAGGGC	-0.143
AGCGGGCC	-0.0447
CGCCCTCC	0.0021
TACGGTGA	0.0598

Sequence	PBM E-score
AACTACAG	-0.0699
GAGCAAGC	-0.13
TCAGAAAA	-0.0863
AAGGTCAC	-0.152
CCCCTCTA	-0.313
CCTGCTGA	-0.107
ACTTCTTC	-0.0867
AATCTAGT	0.198
AGGGGGAA	-0.337
CGCTTGAC	-0.0561
GAGTTTAA	0.0967
GACCCTAA	-0.203
CGTATTAC	0.0586
ATTCAGGG	-0.0654
CGCATTGA	0.139
CTCTGAAC	-0.162
CGGATGAC	-0.0434
CGATCGCA	0.0463
AGGTCCGC	-0.178
ATGCAGGG	-0.117
AAAGCTAA	0.103
GGACCTGA	-0.151
CAGTCGGG	-0.14
TACGCACA	0.12
CCACTCGC	0.0516

Sequence	PBM E-score
ACAAATAA	0.226
CGCTGGGC	-0.0854
GAACCGGA	-0.0308
TGGGCGAA	-0.0429
CGACCGAC	-0.0518
TATTCGGA	0.107
CAAAGACA	0.0138
ACGTCCTA	-0.0505
GAACGCAC	0.099
AGGATGCA	-0.047
AGTAATCA	0.12
ATCCGTTA	0.178
TGGCCACA	-0.103
GCTATCAC	-0.12
GTACGCGA	-0.186
TCTCAGCA	-0.122
ACAAATTG	0.032
CCTGGTTA	-0.202
ATATCCGG	-0.0519
TCGAGCCA	0.0134
ATCCACTC	-0.0431
ACGGCATA	0.45
CTCCAGTC	-0.0847
CGGAAACG	-0.0276
AGTGAGGG	-0.325

Sequence	PBM E-score
ACCTTTTG	-0.0875
AAGGACTC	-0.169
AAACGTAG	-0.195
ACCCGCCT	-0.0919
ATTAGCGC	0.221
AACAGTTG	-0.335
CTATACTA	-0.0436
AGACCAAA	0.0439
ATGTTCGG	-0.0184
ACGTGATC	-0.009
CAAACATA	-0.094
AAGGAGAG	-0.317
GCAATTAA	0.045
GGCTATAC	-0.0397
AACTTTTG	0.207
AATCTCGC	0.215
AAGCACAA	0.173
CAGCATTA	-0.133
CTAGCCAG	-0.164

Source: the supplement of paper PMC3334620
